Test results taken from PubChem BioAssay AID1631 (National Center for Advancing Translational Sciences (NCATS), 2009).
Screen size: about 260,000 compounds; about 890 (0.34%) were called active. The inconclusive results got no clear call from the source; some entries with a clear call stand among them for comparison. Calls come from the whole dose curve; as a rule, active = well fitted activation curve with a large enough effect; inconclusive = small, poorly fitted or top-dose-only effect; inactive = no such curve, though single readings can be large or run the other way. No potency is given beside an inconclusive call; the fits are too rough. Where a structure was tested more than once in an assay, its records may differ in their call.

What follows are molecules tested against Pyruvate kinase PKM (Homo sapiens) (UniProt P14618) (assay: qHTS Assay for Activators of Human Muscle isoform 2 Pyruvate Kinase). Details: purified PKM2, Kinase-Glo ATP luminescence; Potency: activation; activation: at 57.5 µM (top of the series), 0% is enzyme alone, no compound.
Sequence of UniProt P14618 (P14618 whole entry, looked up, canonical isoform): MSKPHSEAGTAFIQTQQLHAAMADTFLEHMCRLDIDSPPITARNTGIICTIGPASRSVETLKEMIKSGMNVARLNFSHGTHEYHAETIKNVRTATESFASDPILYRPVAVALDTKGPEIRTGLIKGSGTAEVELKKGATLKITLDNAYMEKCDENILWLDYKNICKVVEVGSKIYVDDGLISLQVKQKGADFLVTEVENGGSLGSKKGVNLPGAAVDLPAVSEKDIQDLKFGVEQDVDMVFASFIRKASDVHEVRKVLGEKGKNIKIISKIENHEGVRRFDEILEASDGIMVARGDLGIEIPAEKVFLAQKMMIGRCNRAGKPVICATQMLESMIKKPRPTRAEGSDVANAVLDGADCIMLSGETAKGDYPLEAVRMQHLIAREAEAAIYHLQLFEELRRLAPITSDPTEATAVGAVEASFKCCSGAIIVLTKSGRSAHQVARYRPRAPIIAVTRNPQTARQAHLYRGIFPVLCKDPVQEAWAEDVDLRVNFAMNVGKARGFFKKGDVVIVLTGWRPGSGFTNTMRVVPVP
Method in brief: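 Kinase-Glo luminescence reports ATP generated from ADP (0.1 mM) and PEP (0.5 mM) by purified hPK-M2 after 1 h at room temperature, pH 7.2 imidazole buffer; intermediate enzyme activity allows detecting inhibitors and activators.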
% is set by controls: 0 for no effect and ±100 for the full control effect; potency is the fitted concentration of half-maximal effect; tags give direction and shape of the fitted curve.
Note: nearly all actives have a fitted effect of over 55% in size.

Row | SMILES | activation | Potency
1 | COc1cc([N+](=O)[O-])cc(/C=N/NC(=O)C(C)Nc2ccccc2C)c1O (stereo not drawn) | inactive: -0.222% | –
2 | O=C(OCn1nnc2ccccc2c1=O)C1CCN(S(=O)(=O)c2cccs2)CC1 | – | inconclusive [rising, single point]
3 | NS(=O)(=O)c1ccc(NC=C2C(=O)OC3(CCCCC3)OC2=O)cc1 | – | inconclusive [rising, partial curve, poor fit]
4 | CC(C)c1ccc(CN2CC(C(=O)Nc3ccccc3)CC2=O)cc1 (stereo not drawn) | – | inconclusive [rising, single point]
5 | Cc1cc(NCc2ccccc2)nc(N2CCOCC2)n1 | – | inconclusive [rising, single point]
6 | CN(C)c1cc(NC(=O)CNC(C)(C)C)c2ccccc2n1 | – | inconclusive [rising, single point]
7 | O=C(CCc1ccc(S(=O)(=O)N2CCOCC2)cc1)N/N=C/c1ccc(F)cc1F | inactive: -3.25% | –
8 | CCC(SC1=NCCS1)C(=O)Nc1nnc(-c2ccccc2OC)s1 (stereo not drawn) | – | inconclusive [rising, partial curve]
9 | O=C(Cc1ccccc1)NCc1ccc2c(c1)OCO2 | inactive: 10.4% | –
10 | C/C=C\C=C\C(=O)Nc1cccc(C2=NOC3(C2)C[C@@H](C(N)=O)N(C(=O)C(c2ccccc2)c2ccccc2)C3)c1 (stereo partly drawn) | – | inconclusive [rising, partial curve]
11 | O=C(O)c1cccc(NC2=C(Cl)C(=O)c3ccccc3C2=O)c1 | inactive: -15.4% | –
12 | Cc1ccc(NC(=O)NC(=O)N(C(C)C)S(C)(=O)=O)nc1 | inactive: -14.3% | –
13 | CNc1c([N+](=O)[O-])cnn1-c1ccc(C)cc1 | – | inconclusive [rising, single point]
14 | Nc1ccc(N2CCCCC2)cc1N1CCCCC1 | – | inconclusive [rising, full curve, poor fit]
15 | COc1ccc(C2Nc3ccccc3C(=O)N2Cc2ccco2)cc1CN1C(=O)c2ccccc2C1=O (stereo not drawn) | – | active: 20 µM
16 | Cc1n[nH]c(=S)n1-c1cccc(Cl)c1 | inactive: -20.6% | –
17 | O=[N+]([O-])c1cc(O)c2ncccc2c1 | – | inconclusive [rising, single point]
18 | COc1nc(-c2ccccc2)ncc1S(=O)(=O)c1ccccc1 | – | active: 15.8 µM
19 | Cc1cc(C)n2cc(CSc3nnnn3-c3ccccc3C)nc2n1 | – | active: 14.1 µM
20 | Cc1ccc(OCCn2cc(C(=S)N3CCCC3)c3ccccc32)cc1C | inactive: -5.72% | –
21 | COc1ccccc1/C=C/C=N/n1c(-c2cc(-c3ccccc3)n[nH]2)n[nH]c1=S | inactive: -1.08% | –
22 | Cc1nc(C(=O)NCCC(C)C)sc1C1(C)CC(c2ccccc2)=NO1 (stereo not drawn) | inactive: -15.8% | –
23 | CC1=C(C)CC2C(=O)N(c3cccc4ccccc34)C(=O)C2C1 (stereo not drawn) | – | inconclusive [rising, single point]
24 | CCOC(=O)c1sc2nc(-c3ccco3)c3c(c2c1N)CC(C)(C)OC3 | – | inconclusive [rising, single point]
25 | CCCCNC(=O)Nc1ccnn1C1CCCCC1 | – | active: 3.98 µM

Row | SMILES | activation | Potency
26 | COc1ccc(S(=O)(=O)N2CCN(C(=O)NCc3ccc(C)cc3)CC2)cc1 | – | active: 7.08 µM
27 | CC(C)(C)NC(=O)NC(=O)CN1CCN(S(=O)(=O)c2ccccc2)CC1 | – | inconclusive [rising, single point]
28 | CC(=O)Nc1c(C)ccc2nsnc12 | – | inconclusive [rising, single point]
29 | Cc1cc(C)nc(/N=C/c2c(O)n(C)c(=O)n(C)c2=O)n1 | inactive: -0.384% | –
30 | Cc1ccc(N=C2NC(=O)/C(=C/C=C/c3ccco3)S2)cc1C | – | inconclusive [rising, partial curve]
31 | Nc1nn(S(=O)(=O)c2ccccc2)cc1-c1ccc([N+](=O)[O-])cc1 | – | inconclusive [rising, partial curve]
32 | Cc1cc(C)n(CCC(=O)N2CCN(S(=O)(=O)c3ccc(C)c(C)c3)CC2)n1 | – | inconclusive [rising, partial curve]
33 | NS(=O)(=O)c1ccc(NC(=S)N2CCN(c3cccc(Cl)c3)CC2)cc1 | inactive: 5.97% | –
34 | O=C1S/C(=C/c2ccc(N3CCOCC3)o2)C(=O)N1Cc1ccc(F)cc1 | – | active: 2 µM
35 | O=C(CSc1cccc2cccnc12)N1CCCC1 | inactive: 1.13% | –
36 | COc1cc(NS(=O)(=O)c2ccc3c(c2)n(C)c(=O)n3C)cc(OC)c1 | – | inconclusive [rising, partial curve]
37 | Cc1ccc2nc(SCc3nc4ccccc4c(=O)[nH]3)[nH]c2c1 | inactive: 6.55% | –
38 | Cn1c(=O)n(C/C=C/c2ccccc2)c(=O)c2c1nc1n2CCCN1c1ccc(F)cc1 | – | inconclusive [rising, single point]
39 | COC(=O)c1c(C)[nH]c(C(=O)N2CCN(c3ccc(OC)cc3)CC2)c1C | – | inconclusive [rising, single point]
40 | CC(C)C(=O)N1CCN(S(=O)(=O)c2ccc3ccccc3c2)CC1 | – | inconclusive [rising, single point]
41 | CCOC(=O)C1=C(C)NC(=O)NC1c1cccs1 (stereo not drawn) | – | inconclusive [rising, single point]
42 | Cc1ccc(S(=O)(=O)N2CC=C(C(=O)NCc3ccc(F)cc3)CC2)cc1 | – | inconclusive [rising, single point]
43 | Cc1nnc(NC(=O)CSc2nc3c(c(=O)n(C)c(=O)n3C)n2C(C)C)s1 | – | inconclusive [rising, single point]
44 | O=c1[nH]c(NCc2ccccc2)nc2c1CCC2 | – | inconclusive [rising, single point]
45 | COc1cc(F)ccc1S(=O)(=O)n1c(C)nc2ccccc21 | – | inconclusive [rising, full curve, poor fit]
46 | CCN(C(=O)COC(=O)CNC(=O)c1ccc(C)s1)c1ccccc1 | inactive: 4.07% | –
47 | COc1ccc(NC(=O)CSc2nnnn2C)c([N+](=O)[O-])c1 | – | inconclusive [rising, partial curve]
48 | O=C(NC(=S)NCCO)c1sc2ccccc2c1Cl | – | inconclusive [rising, full curve]
49 | COc1ccccc1/C=N/N1C(=O)c2cccc3cccc(c23)C1=O | – | inconclusive [rising, single point]
50 | Cc1c(C(=O)O)[nH]c2ccc([N+](=O)[O-])cc12 | – | inconclusive [rising, single point]

Row | SMILES | activation | Potency
51 | Clc1cccc(/C=N/Nc2nc(Cl)nc3ccccc23)c1 | inactive: -3.29% | –
52 | CN(C)CCN1C(=O)NC(C)(c2ccc([N+](=O)[O-])cc2)C1=O (stereo not drawn) | inactive: -6.04% | –
53 | CS(=O)(=O)Nc1ccc(C2=NN(C(=O)c3ccco3)C(c3ccccc3F)C2)cc1 (stereo not drawn) | – | active: 3.16 µM
54 | COc1ccc(CC(=O)n2[nH]c(=O)cc(C)c2=O)cc1OC | – | inconclusive [rising, partial curve, poor fit]
55 | CCC(C)C(=O)N1CCCC(c2nc(-c3cccs3)no2)C1 (stereo not drawn) | – | inconclusive [rising, single point]
56 | COc1ccc(NCc2nnc(SCC(=O)N3CCCc4ccccc43)n2C)cc1 | – | inconclusive [rising, partial curve, poor fit]
57 | O=c1c2[nH]c3ccccc3c2ncn1Cc1ccccn1 | inactive: 4.99% | –
58 | O=C(NCc1ccccn1)c1ccc2nc(-c3ccco3)c(-c3ccco3)nc2c1 | – | inconclusive [rising, full curve, poor fit]
59 | CCOC(=O)c1c(C)[nH]c2cc(Br)c(O)cc12 | – | inconclusive [rising, single point]
60 | O=C(CSc1ccccn1)Nc1ccc(NC(=O)CSc2ccccn2)cc1 | – | inconclusive [rising, single point]
61 | O=c1c2c3c(sc2ncn1/N=C/c1ccc(Br)o1)CCCC3 | – | inconclusive [rising, single point]
62 | CC(C)(C)c1csc(NC(=O)C2COc3ccccc3O2)n1 (stereo not drawn) | inactive: -22.4% | –
63 | CCC(C)C(NC(N)=O)C(=O)Nc1ccc(C)c(Cl)c1 (stereo not drawn) | inactive: -9.58% | –
64 | C/C(=N\NC(=O)C1CCCN(S(=O)(=O)c2ccccc2)C1)c1ccccn1 (stereo not drawn) | – | inconclusive [rising, single point]
65 | CCn1c(=O)c(C(=O)NNS(=O)(=O)c2ccc(C)cc2)c(O)c2ccccc21 | – | inconclusive [rising, single point]
66 | O=S(=O)(Nc1nc2ccc(Cl)cc2s1)c1cccs1 | – | inconclusive [rising, single point]
67 | CC1(C)C(=O)Nc2ccccc2N1C(=O)CSc1ncccn1 | – | inconclusive [rising, single point]
68 | O=C(COc1ccc(Br)cc1F)N1CCN(c2ncccn2)CC1 | – | inconclusive [rising, single point]
69 | COC(=O)C1=C(C)N(CC2CC2)C(=NCc2cccc(C(F)(F)F)c2)N[C@H]1c1ccccc1 | – | inconclusive [rising, single point]
70 | N#Cc1c(N)n(CCNC(=O)c2ccc(Cl)cc2)c2nc3ccccc3nc12 | – | active: 28.2 µM
71 | CC(=O)C(C(C)=O)c1c(Cl)c(O)c(O)c2c(C(=O)c3ccccc3)coc12 | – | inconclusive [rising, full curve, poor fit]
72 | Cc1cc(C(=O)N/N=C/c2ccccc2[N+](=O)[O-])c(C)o1 | – | inconclusive [rising, partial curve]
73 | CC1CC(C)CN(CCCNC(=O)c2ccc3nc(N4CCCCC4)sc3c2)C1 (stereo not drawn) | – | inconclusive [rising, single point]
